± gives the standard deviation of the averaged measurements. Some of the results follow.
tested on: PfAP2-I AP2 domain 3 (GST-tagged); test: gcPBM binding intensity (ln(normalized median fluorescence intensity)); higher = stronger DNA binding
Method in brief: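 GST-tagged P. falciparum DNA-binding domains, expressed in E. coli (about 25 μg on average), were applied for 1 h to an Agilent 4 × 180k array of primer-extended double-stranded 36-bp intergenic genomic probes plus negative controls. The binding buffer was 1× PBS with 1% milk, 0.2 mg/ml BSA, 0.5% salmon testes DNA and 0.03% Triton X-100. Bound protein was detected with Alexa488 anti-GST antibody and scanned at 488 nm. Binding intensity is the highest Masliner-normalised natural-log median intensity across replicate spots of either probe orientation.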

| Sequence | gcPBM binding intensity (ln) |
| --- | --- |
| TCTGTATTTCCTTATGCATGCATTAGCAAGATAATA [TGCATGCA_site483] | 8.39 ± 0.57 |
| GTAAGTATATATAAATGTACTTATGAGGTCAAATTA [XGTACX_site3392] | 7.68 ± 0.57 |
| TTGGGTATTTTGTGCGCACACACATGCAAAAAGAAA [CACACA_site8299] | 10.5 ± 0.18 |
| AGAGATACATAAAAAAGTACATATAAAATTTAGGAA [XGTACX_site7201] | 7.96 ± 0.19 |
| TAAGTATACTCATACACACACACACTAGAAAAAAAA [CACACA_site4397] | 7.93 ± 0.54 |
| TATTTATTTATATACACACACTTGTATAAAAAATGT [CACACA_site7048] | 7.95 ± 0.5 |
| TACAAATTAATATGTACACACAAATATATATATATA [CACACA_site1977] | 9.22 ± 0.11 |
| ATAATATGAAACTAAGGTACACATATATTAACAGAG [XGTACX_site3842] | 8.29 ± 0.23 |
| TGCGACCATAATAAAGCACACAATGAAAAATATATA [CACACA_site256] | 9.4 ± 0.39 |
| TGTGCTCAAAATTATGCACACACCTAAAATTAATTT [CACACA_site8950] | 10.3 ± 0.6 |
| CCAATAATATATAGAAGTACAGAAAAAAAAAAAAAA [XGTACX_site2049] | 8.07 ± 0.46 |
| AAGAAAATTAAATTAACACACATAAATATGTAAATA [CACACA_site6882] | 7.42 ± 0.36 |
| CCCTCTTCTCTCATATCACACATGTCATCCTTATCC [CACACA_site5078] | 8.44 ± 0.35 |
| TATAAATATTTATAAACACACAAATATATATATTTA [CACACA_site27] | 7.71 ± 0.25 |
| ATCAAAATGTTAAAGATACACACCTAACAAACACAA [CACACA_site955] | 7.96 ± 0.19 |
| GCACGCTGTATGAATGCACACATTCATAGAATTGCT [CACACA_site8852] | 9.22 ± 0.15 |
| TTATATATATAGAAGTGTACAAAATTTCCTAGACCT [XGTACX_site3900] | 7.92 ± 0.61 |
| TATCGACATTTCATTTGTACATATATACATATATTT [XGTACX_site3346] | 7.71 ± 0.6 |
| AAATAGTATATAATATGTACATACATAAAAATGTAT [XGTACX_site3524] | 7.63 ± 0.54 |

| Sequence | gcPBM binding intensity (ln) |
| --- | --- |
| ACCTATGTATATTATACACACTCCAAACTATTATTT [CACACA_site1817] | 8.12 ± 0.58 |
| TTTTGTTTGTTCGTGACTACATTATGTTGTAAATAC [CACACA_negctrl_site604] | 7.87 ± 0.56 |
| AAAGGTAAGCAGAATAGTACAGAAGAAAAAATATTT [XGTACX_site2941] | 8.09 ± 0.81 |
| TATCCTATAAATAATACATGCATATATATATATATT [TGCATGCA_site638] | 8.07 ± 0.37 |
| ATCAAAAAAAAAAAATTTTTTTTTTTGTTTGTTTCC [CACACA_negctrl_site1042] | 7.34 ± 0.91 |
| CAACATTTGAGACACACACACATACAAACAAACAAA [CACACA_site7538] | 8.14 ± 0.33 |
| ATTACAAAAAAAAAAAAAAAAAAAAAAAAAAAAAAA [CACACA_negctrl_site448] | 8.35 ± 1.1 |
| TATACATAGATATATACACACATATATTTATATACA [CACACA_site6328] | 7.54 ± 0.25 |
| ATATGTATATATATTTGTACGTAAAATGAAATCTAA [XGTACX_site213] | 8.28 ± 0.44 |
| ATTTCACAGAAACACACACACAATATATTTCCTTTT [CACACA_site3904] | 7.71 ± 0.61 |
| GAAAAATGAAGAGAACAAAATTTTATGATATATATA [GTGCAC_negctrl_site231] | 8.13 ± 0.6 |
| CCTTGAACCCCACTAACACACACACCCACGCTCAGA [CACACA_site8976] | 8.14 ± 0.59 |
| TTTCATAAATAAATATGTACATAATTAATAATAAAT [XGTACX_site5882] | 7.78 ± 0.27 |
| GTTATTGAAAAAATAGTGCAATATAACAAAGTAAAA | 11.4 ± 0.52 |
| AAATAAAACAAACACACACACACATACACAAAAAAA [CACACA_site3849] | 8.06 ± 0.35 |
| GGAATGTAGGGTTTTACCAAAATAAAAATAACCATA [XGTACX_negctrl_site492] | 7.64 ± 0.61 |
| TATATATTTCGGTGTGCACACTTTTTATTTTTATCC [CACACA_site1726] | 9.15 ± 0.67 |
| TATATATATATATGTACACACATATATACCTTTCAT [CACACA_site2679] | 9.44 ± 0.45 |
| TAATTTCTTATGTATTGTACAAATAATATATGATAT [XGTACX_site611] | 7.91 ± 0.33 |

| Sequence | gcPBM binding intensity (ln) |
| --- | --- |
| ATAAAATACCTATAAACACACATATAAACAGACATA [CACACA_site7213] | 7.79 ± 0.45 |
| CTTTTATTAAAATTCACACACATAAACTTTTATAAA [CACACA_site7027] | 7.81 ± 0.48 |
| AATATATACAATATATGTACATATATATACACATAT [XGTACX_site4190] | 7.88 ± 0.47 |
| CTTATATATATATCATGTACTTATGTATTTAAGAAT [XGTACX_site3307] | 7.71 ± 0.26 |
| ACAATAAAAATTTATGCATGTGAATTGAAAAAAAAA [TGCATGCA_site1037] | 7.94 ± 0.79 |
| ATAATATTTTCTTCTTATTGAATGCTTTAAATTTAC [CACACA_negctrl_site1273] | 7.64 ± 0.81 |
| GGGAAATATTGAAACACACACGAACGCACGTATTTC [CACACA_site6258] | 8.79 ± 0.69 |
| TTAAGAAGTTCTAAATGTACATACATAACCACGTTA [XGTACX_site7514] | 7.67 ± 0.57 |
| ACAAATAAGTTTTGTAGTACTGTGTATATATATATA [XGTACX_site6901] | 9.23 ± 0.47 |
| TTAAACCGTGGGAGCACACACACACCCCCACCCATA [CACACA_site331] | 8.53 ± 0.35 |
| GCATAAGAAAATAATTGTACAATTTACATACATAAA [XGTACX_site8286] | 7.73 ± 0.51 |
| TATATATGTATATATATAAATATATATATATATATA [TGCATGCA_negctrl_site605] | 9.4 ± 0.63 |
| TAATGAAATATACAGAGTACATTCTGTATATAGGAT [XGTACX_site7691] | 7.75 ± 0.46 |
| TATAAATATATATACACACACACATTAATACATATA [CACACA_site3488] | 7.9 ± 0.33 |
| ATATTAGTAACACAGACACACAAAAAAAAAAAAAAA [CACACA_site2176] | 8.09 ± 0.69 |
| TTGTACGCAAAAAAAAAAAAAAAAAAATTAAAATTT [TGCATGCA_negctrl_site586] | 7.77 ± 0.042 |
| TTTTTCTCTTTAAGGTGTACAATAATACAGTAACCA [XGTACX_site300] | 8.32 ± 0.042 |
| TTTTTTATTATCAAAACATGCATTTTTTAAATGGAA [TGCATGCA_site557] | 7.72 ± 0.62 |
